Measured values as given in PubChem BioAssay AID1814 (Broad Institute, 2009).
Screen size: about 300,000 compounds; about 22,000 (7.3%) were called active. Inconclusive means that the source gave no clear call. Such entries were picked first, then a sample of the others. No stated cut-off is given here; in the data, active means activity score below about -60%; inconclusive means mostly about -28% to -61%; inactive means positive scores.

Assay: Activators via SNCA 5'UTR binding, MLPCN (AID 1814)
Settings: alpha-synuclein 5'UTR reporter, activators screen; active compounds read low; tested at 7.5 µM
With `Cc1nc(-c2nc(-c3c(C(=O)NN)noc3C)cs2)cs1` the activity score was inconclusive: -55.3%. With `CN=C1c2cc3cc(OC)ccc3n2CCN1C` the activity score was inconclusive: -34.2%. In the case of `CCCCn1cnc2c([nH]c3ccccc32)c1=O`, the activity score is reported as inconclusive: -39%. In the case of `CN1CCN(C2=NC(=O)/C(=C/c3ccccc3OS(=O)(=O)c3ccccc3)S2)CC1`, the activity score is reported as inconclusive: -33.1%. In the case of `Cc1ccc(-c2nc(C#N)c(NCCN3CCCCC3)o2)cc1`, the activity score is reported as inconclusive: -45.1%. With `O=C(Nc1ccccc1Cl)c1ccc(-n2cccn2)c([N+](=O)[O-])c1` the activity score was inconclusive: -49.2%. For `CC1CCCCN1CCNC(=O)c1cc2c(=O)n(C)c3ccccc3c2n1C` (centres undefined), the activity score was inconclusive: -59.7%. In the case of `CC1CCN(C2=NC(=O)/C(=C/c3cccc(O)c3)S2)CC1`, the activity score is reported as inconclusive: -53.5%. In the case of `O=c1c(C=Nc2ccc(Cl)cc2)c[nH]n1-c1cccc(Cl)n1`, the activity score is reported as inconclusive: -56.9%. With `CSc1ccc(/C=N/N2CCN(c3ccccc3)CC2)cc1` the activity score was inconclusive: -60.4%. In the case of `Cc1ccc(-c2nnc(SCC(=O)N3CCCC3)o2)cc1`, the activity score is reported as active: -104%. With `CN(C)c1ccc(N=C/C=C2\N(C)c3ccccc3C2(C)C)cc1` the activity score was active: -114%. For `COc1cc(C(=O)NCc2ccc(-c3nc4ccccc4o3)cc2)cc(OC)c1OC`, the activity score was inconclusive: -55.7%. For `Cc1ccsc1/C=N\NC(=O)c1n[nH]c2c1CCC2`, the activity score was inactive: 68.6%. In the case of `COC(=O)c1sccc1NC(=O)c1ccc(OC)cc1`, the activity score is reported as inconclusive: -45.9%. With `Cc1ccc(S(=O)(=O)Nc2ccc3c(c2)n(C)c(=O)n3C)cc1` the activity score was inconclusive: -44.4%. With `Cc1ccc(CC(=O)Nc2nc3ccccc3s2)cc1` the activity score was active: -95.8%. In the case of `Cc1c(-c2nnc(-c3ccc(C(F)(F)F)cc3)o2)cnn1-c1ccccc1`, the activity score is reported as inconclusive: -60.7%. With `O=C(NCc1ccc(F)cc1)Nc1cccc(Cl)c1` the activity score was active: -149%. For `Cc1cc(C)n(-c2nc(NCCCO)c3c4c(sc3n2)CCCC4)n1`, the activity score was inconclusive: -52%. In the case of `CC(C)OCCCNC(=O)c1ccc(Br)cc1`, the activity score is reported as active: -73.4%. In the case of `Cc1ccc(C(=O)Nc2ncc([N+](=O)[O-])s2)cc1`, the activity score is reported as inactive: 68.9%. With `CC(C)CC(=O)NC(=S)NCCc1ccccc1` the activity score was inconclusive: -40.8%. With `Cc1ccc(/C(N)=N/OC(=O)CCC2CCCCC2)cc1` the activity score was inconclusive: -48.6%. In the case of `CCOC(=O)c1cc([N+](=O)[O-])sc1NC(=O)c1ccc(S(=O)(=O)N2CC3(C)CC2CC(C)(C)C3)cc1` (centres undefined), the activity score is reported as inactive: 54.5%. With `O=C(CN1C(=O)CSc2ncccc21)Nc1ccccc1F` the activity score was inconclusive: -46.6%. For `CC(C)(C)NC(=O)CSC(=Nc1ccccc1F)NC#N`, the activity score was inconclusive: -60.1%. In the case of `N#C/C(=C\c1cccc2ccccc12)c1nn(-c2ccccc2)c(N)c1C#N`, the activity score is reported as inconclusive: -56.3%. In the case of `CCOC(=O)Cc1csc(NC(=O)c2ccco2)n1`, the activity score is reported as active: -162%. With `CC(C)c1ccc(NC(=O)c2cc(Br)ccc2Br)cc1` the activity score was inconclusive: -43.3%. In the case of `Cc1cccc(N2C(=O)N3[C@H](c4ccc(F)cc4)[C@@H]4C(=O)N(C5CCCCC5)C(=O)[C@@H]4[C@]3(Cc3ccccc3)C2=O)c1`, the activity score is reported as inconclusive: -57.2%. In the case of `CCc1ccc(N2CC(C(=O)OCC(=O)NNC(=O)c3ccccc3)CC2=O)cc1` (centres undefined), the activity score is reported as inconclusive: -45.2%. With `Cc1c(C(=O)NCc2ccc3c(c2)OCO3)oc2ccc(S(=O)(=O)N3CCCCCC3)cc12` the activity score was inactive: 60.3%. For `COc1cc(C)ccc1OCc1cc(C(=O)N2CCCCCC2)no1`, the activity score was inconclusive: -44.7%. With `Cc1ccc(C(C(=O)NCc2ccco2)N(C(=O)CNC(=O)c2cccs2)c2ccc(C)cc2)cc1` (centres undefined) the activity score was inconclusive: -24.8%. For `COCCn1c(Cc2cccn2C)nnc1SCC(=O)Nc1nccs1`, the activity score was inconclusive: -46.5%. For `Cn1nc(CSc2ccccc2)c(C=O)c1Cl`, the activity score was inconclusive: -50.6%. With `O=C(c1ccccc1)c1cc([N+](=O)[O-])ccc1N1CCOCC1` the activity score was inactive: 101%. In the case of `O=C(CSc1nnc2n1CCCN2)c1ccccc1`, the activity score is reported as inconclusive: -55.3%. With `O=C(Nc1cc(Cl)ccc1F)C1=COCCO1` the activity score was inconclusive: -60.9%. In the case of `Cc1ccc(C(=O)N/N=C/c2ccc([N+](=O)[O-])s2)cc1`, the activity score is reported as inactive: 108%. With `Oc1ccc(Cl)cc1C=Nc1ccc(Br)cc1` the activity score was inconclusive: -48.2%. With `COc1cccc(OCC(=O)NC2CCCCC2)c1` the activity score was inconclusive: -37.2%. With `CN(C)c1cccc(C(=O)NCC2CCCO2)c1` (centres undefined) the activity score was inconclusive: -50.2%. For `C#CC[N+](C)(C)CCCCCCCCCC`, the activity score was inactive: 75.3%. In the case of `C/C(=N\NC(=O)c1ccncc1)c1cccc(NC(=O)c2ccc(C(C)(C)C)cc2)c1`, the activity score is reported as active: -123%. With `COc1cccc(NC(=S)NCc2ccco2)c1` the activity score was inconclusive: -58.2%. With `CC12CCC(=O)N1C(C(=O)Nc1nc(-c3ccccc3Cl)cs1)CS2` (centres undefined) the activity score was inconclusive: -42.6%. For `Cc1noc(C)c1COc1ccc(CC(=O)NCc2ccccc2)cc1`, the activity score was inactive: 71.9%. For `COc1ccc(C2(c3ccc(OC)cc3)NC(=O)N(CC(=O)Nc3ccccc3C(F)(F)F)C2=O)cc1`, the activity score was inconclusive: -37.5%. With `Cc1ccc(Nc2cc(C)nc3nc(C)nn23)cc1` the activity score was inconclusive: -27.6%. With `COCCCNc1nc(N)c([N+](=O)[O-])c(NC2CCCCC2)n1` the activity score was inactive: 90.1%. For `CC1Oc2ccccc2C=C1/C=N/NC(=O)c1ccccc1O` (centres undefined), the activity score was active: -131%. For `O=C(Oc1ccccc1)c1ccc(NC(=O)c2ccco2)cc1`, the activity score was inconclusive: -42.7%. In the case of `Cc1ccc(CS(=O)(=O)c2ncc(Cl)c(C(=O)Nc3nnc(C(C)C)s3)n2)cc1`, the activity score is reported as inconclusive: -55.6%. In the case of `C/C(=N/N=C(/N)SCc1ccccc1)C(C)(C)C`, the activity score is reported as inconclusive: -40.9%. With `CCCCOc1ccc(C(=O)NCC(=O)NCCOc2ccccc2)cc1` the activity score was inconclusive: -38.9%. In the case of `CSc1ccc(C2NN=C(c3ccccc3)S2)cc1` (centres undefined), the activity score is reported as inactive: 67.6%. With `O=S(=O)(CCN1CCOCC1)c1ccc(Cl)cc1` the activity score was inconclusive: -59.3%. For `COC(=O)C(C)N1C(=O)S/C(=C\c2cc(C)n(-c3ccccn3)c2C)C1=O` (centres undefined), the activity score was inconclusive: -60.1%. In the case of `COCCNC(=O)c1snc2ccc(Cl)cc12`, the activity score is reported as inconclusive: -38.4%. For `CC(=Nc1ccc(C)cc1C)c1sc2ccccc2c1O`, the activity score was inconclusive: -58%. For `Cc1oc2cc3oc(=O)c(CCC(=O)NC4CC4)c(C)c3cc2c1C`, the activity score was inconclusive: -47.7%. With `CCN(C(=O)[C@@H]1CCCN1C(=O)c1cccs1)c1nc2cc(Cl)ccc2s1` the activity score was inconclusive: -52.7%. For `C/C(CC(=O)Nc1ccc(N(C)C)cc1)=N\NC(=O)c1cnccn1`, the activity score was inconclusive: -47.1%. For `O=C(Nc1ccc2c(c1)OCCO2)c1cccc(Cl)c1`, the activity score was active: -225%. With `O=C(c1ccccc1)N1CCSc2sccc2C1=O` the activity score was inactive: 96.8%. With `O=c1c2[nH]c3ccccc3c2nc2n1CCS2` the activity score was inconclusive: -30.3%. In the case of `CCOc1cc(/C=C(/C#N)C(=O)Nc2ccc(O)cc2)cc(Br)c1O`, the activity score is reported as inactive: 83.7%. In the case of `N#CCSc1nc2ccc(N3CCCCC3)cc2c(=O)n1Cc1ccccc1`, the activity score is reported as inconclusive: -45.2%. With `O=C(Nc1cccc2cccnc12)c1cccc(Cl)c1` the activity score was inconclusive: -60.4%. In the case of `Cc1ccc2sc(N(CCCN(C)C)C(=O)c3ccc(Br)s3)nc2c1C`, the activity score is reported as inconclusive: -47.1%. For `CCc1cc(C(=O)COc2ccccc2F)c(O)cc1O`, the activity score was inconclusive: -50%. With `O=C(Nc1ccc2c(c1)OCO2)N1CCN(S(=O)(=O)c2ccc(Cl)cc2)CC1` the activity score was active: -67.8%. For `Cc1ccc(-c2cc(O)cc3sc(=O)oc23)cc1C`, the activity score was inconclusive: -37.5%. With `Brc1ccc(/C=N/Nc2nncc(-c3ccccc3)n2)o1` the activity score was inconclusive: -56.8%. For `C/C(=N\NC(=O)c1cc(-c2cccs2)nc2ccccc12)c1ccccn1`, the activity score was inactive: 79.3%. With `NC(=O)C1=C[C@H](c2ccc(Br)cc2)C[C@H](OCc2ccc(CO)cc2)O1` the activity score was inconclusive: -48.2%. In the case of `COc1ccc(-c2noc(-c3cc(C)cc(C)c3)n2)cc1OC`, the activity score is reported as inconclusive: -44.9%. With `Cc1ccc(-c2nn3cnnc3c3ccccc23)cc1C` the activity score was inactive: 64.2%. For `C=CCOc1ccc(NC(=O)C(=O)NCCCn2ccnc2)cc1`, the activity score was inactive: 51%. In the case of `CCN(CC)C(=S)NC(=O)C12CC3CC(CC(C3)C1)C2`, the activity score is reported as inconclusive: -40.6%. For `CCOC(=O)c1ccc(Nc2cc(C)nc(-c3ccccc3)n2)cc1`, the activity score was active: -213%. For `Cc1ccc(C)c(SCC(=O)OC/C(O)=C(\C#N)c2nc3ccccc3[nH]2)c1`, the activity score was inconclusive: -52.5%. For `Cc1ccc(N2C(=O)c3cccc4c(N)ccc(c34)C2=O)c2cccnc12`, the activity score was inactive: 99.8%. In the case of `O=C(NNC(=O)c1cccs1)c1ccc(Cl)cc1`, the activity score is reported as inconclusive: -54.2%. For `Fc1ccccc1CSc1ncnc2c1oc1ccccc12`, the activity score was inconclusive: -32%. With `CC(=O)Nc1ccc(NC(=O)/C=C/c2ccc3c(c2)OCO3)cc1` the activity score was inconclusive: -50.6%. With `CC(=O)c1sc(NC(=O)C=C(C)C)nc1C` the activity score was inconclusive: -55.9%. For `NC(=O)NC(=O)C(Nc1ccc(N2CCCCC2)cc1)c1ccccc1` (centres undefined), the activity score was inconclusive: -55.1%. For `O=C(Cc1ccc(-c2ccccc2)cc1)NCc1ccccc1`, the activity score was inactive: 104%. In the case of `CCC(C)c1ccc(OCC(=O)Nc2ccc3[nH]c(=O)[nH]c3c2)cc1` (centres undefined), the activity score is reported as inconclusive: -37.6%. In the case of `O=C(NC(=S)NNC(=O)c1cnccn1)c1ccc(F)cc1`, the activity score is reported as inactive: 70.3%. In the case of `O=C(c1cc(-c2cccc(Cl)c2)on1)N1CCOCC1`, the activity score is reported as active: -171%.
